Data: the supplement of paper PMC10126150
Sequences with one replicate were seen in a single cluster, so their values are uncertain.

System: ATP
Experiment: switch fluorescence ratio, 500 uM ATP over buffer (Cy3 cluster intensity, sum of 5 cycles each) (fold (ratio)); higher = stronger signal-on switching upon ATP binding; sequences stand for … in TCGTCGGCAGCGTCAGATGTGTATAAGAGACAGTTTTTTTTTTTTTTTTTTTTTTTTT…TC
Conditions: aptamer strand: ATP DNA aptamer (quencher-CACCTGGGGGAGTATTGCGGAGGAAGG + anchor), 100 nM annealed; ATP concentration: 500 uM; one replicate
Summary of the method: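 Per cluster, summed Cy3 intensity from the target cycles was divided by that from the buffer cycles to give the fluorescence ratio, then averaged per switch-domain sequence. Clusters outside 100-1000 RFU were excluded. The Cy3-labelled switching-strand clusters, on a modified Illumina MiSeq flow-cell, were annealed to 100 nM quencher-labelled ATP aptamer and imaged in selection buffer, then after 15 min with 500 uM ATP at 22 °C, for five cycles with NaOH stripping and re-annealing between them.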
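Also: ATP exposure 15 min at 22 °C before imaging.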

Sequence | switch fluorescence ratio
TTGCTGGCCT | 0.976
GGTGTAATTT | 0.95
GATGGCCGGA | 1.05
CCGAGCCTGG | 1.22
TATCGGACC | 1.15
TGCCTATAGA | 0.969
AGAGACTCGT | 1.02
TTGGATAAGA | 0.935
TCACGGAAAC | 1.15
ACTGGCCTGT | 1.01
CTCGGTTCGA | 0.977
GAGGGGCTAC | 1.01
AAGAAAGTAT | 0.941
AGACCGACCC | 2.3
AACTGGAG | 1.04
GCGACCCTTC | 1.17
CGTCTAGCCA | 1.01
CGGGACTTG | 1.02
TTGTACGATT | 0.973
CTGGTCTCTA | 0.991
CCTTCTTACA | 1.07
TATCAGTCG | 1.01
AAGGCCGAGT | 0.979
GGAGAACGTG | 1.03
CAATTACTAA | 0.984
CGCGAGCGCG | 0.916

Sequence | switch fluorescence ratio
GCCTAATCTC | 1.01
AAGGGCGTTG | 0.999
ACGTCCAAGT | 0.989
TCAAGAAGGG | 0.992
TATTCCCACG | 1.03
GTATACAAAT | 0.915
CAAATGTATG | 1.09
ACCTCCCTGA | 1.21
ATATCTATTA | 0.965
ACTAGGGGAG | 0.996
GCGTTGAA | 1
CGGACATGAT | 1.04
TCGACCTGGA | 1.09
TGGGGCGTGG | 0.979
GAATGTGTGT | 1.01
TATATAGCGA | 1.03
TAAGAGGCTG | 0.945
CGCTAATCTG | 1.11
AATGGAGTTC | 0.994
CGAAGTGATC | 2.59
CGATGAACCG | 1.1
CACTTGCTCG | 1.05
CGGTGCCAGT | 0.991
GATGGCGTGA | 0.954
GTGCAAGATG | 0.997
AAAGGTAGC | 1.05

Sequence | switch fluorescence ratio
ACTCTGGCCT | 1.13
CGCTCCCATA | 1.82
TCAGGATTAT | 1
AATAGGGAAT | 0.981
TTTGAGGGAA | 1.02
GCTACGGCTA | 1.11
CCGCAAGTTT | 3.67
TGCTACTGCC | 1.05
GCTGCGCCGA | 1.05
GTTTCTTATC | 1.02
ATAATTCATT | 0.987
AATAATAAG | 0.971
TTAGTAATTA | 0.995
ACCGTTTTCT | 1.04
AGTATATACG | 0.927
CCAATGCGGA | 1.11
TTATATCATG | 0.984
CTGAAAAGTG | 0.976
ATACTGATGT | 0.956
TCATAGTAGA | 1.01
GGGTGCCTCT | 1.1
GTCGCAGGTT | 1.01
CCACGCGCTG | 1.09
ATGACGACCT | 1.04
AGTAGCTGAG | 1.02
CCGTCCAAGA | 3.19

Sequence | switch fluorescence ratio
CGACCTATCA | 0.963
GTTCTGAAAA | 1.04
GAGGGCTCGG | 0.985
GGGTCGATGA | 0.972
CGATGTTTCG | 0.979
AAGTTGCTGA | 0.989
AAGCAAGGAT | 1.56
GATATTCATC | 1.01
ACGCCTCGGC | 1.03
GGCTGAACCT | 1.61
GGGGACTCAG | 1.04
TCAAAGCTGG | 1.03
GCAACGCGGC | 1.13
GACTTTGATC | 1.04
CACGGTGCT | 1.08
CATACCTCAA | 1.15
CTGGCGAATC | 1.21
AATCCGAGGT | 0.977
CAGACGGTTA | 1.09
TTAGCGAAGT | 0.992
CGTGCTGATG | 0.948
GACACGCGT | 0.982
CCGTATGTCA | 0.991
TAGACTAAAA | 0.996
TGTCATCAGC | 1.01
TAGGATTGTC | 0.994

Sequence | switch fluorescence ratio
AGCTAACGGT | 1.05
CCACCAGAGA | 1.31
GCAGTACGTG | 1.22
TTCGCTGCAG | 1.04
GTTTGGTGCT | 1.04
TCGTTGCAAA | 1.16
CGCTATCGTC | 1.05
ACGATAGTAT | 1.01
ACGTTTAGGA | 0.968
ACTGAACCTG | 1.17
GAGGAAAAGG | 1
GCCTAGTTAT | 1.01
TAAGATGGTA | 0.977
AAGTCAGCTA | 1.01
GTGTGTAAG | 0.95
CTGAGTTCCT | 1.03
TTGGTTTCCG | 1.02
CAGGAGTTTT | 1
CGTCGAGCGG | 1.02
TCGTCCGGTT | 1.01
GCAGCTATAG | 4.36
GGTTCTTTGG | 0.984
CTGGCGGGTC | 0.969
TATGACGATA | 1.04
TGTAACAAA | 0.989
TGAAGACCTA | 1.03

Sequence | switch fluorescence ratio
TGTTGGTATC | 0.998
TCTTAATCC | 0.997
TACCTGTGGT | 0.947
CACTCAGTGG | 1.04
CTTTAACGCC | 1.05
ATCACGTCTG | 1.03
CGTCTTTTTA | 1.02
TGAAACTGAT | 0.995
CGAAATAATC | 1.07
CGTACATTAT | 1.03
AGTTTACAGA | 0.997
TTTACATCA | 0.98
TTTTGGACGA | 1.02
AGCATCGCAC | 1.02
CCTCGGTCTT | 1.57
TATAGCACGG | 1
GGCTCCTCGC | 1.11
AACTGAGGAA | 1.04
TTTGGGTCGC | 0.991
GTGTGGTGTC | 1.06
TGAGAATTT | 0.994
GTGATTAGAG | 1.01
AGAGTAGTTC | 1.01
CCGTACGATG | 1.15
TGCCGAGGCG | 0.958
AGTGACCCCG | 1.04

Sequence | switch fluorescence ratio
CCATGTAGTG | 1.03
TTACCGTGGT | 1.01
CGCAATGTGA | 2.93
TTATCACCCT | 1.1
AGCGGATCAA | 0.993
CATTAGTGGT | 0.968
TTCTACCCGG | 1.07
TCCGGTGGGA | 1.04
ACATATGGGA | 1.21
TAGCGGGCGG | 0.998
TGGGCTCCGT | 0.99
ATGTAAAG | 0.965
TGCTAACTTA | 0.982
GAATTTGCAT | 0.974
ACTCGTGCCA | 0.992
TACTGTATAG | 1.07
CGCCGTTGAA | 0.964
TCTTGTTACG | 0.928
TACGCTGGAT | 1.09
CGTGGAATGA | 1.02
TCCCGTTTGG | 1
CTGTGATCA | 1.09
AATGAAGTAT | 0.966
TCGGTGAAAC | 0.973
CGCTCCAATA | 2.21
TTGGGTGTC | 0.94

Sequence | switch fluorescence ratio
CCCTTGTCGT | 0.996
TTTGTTCAA | 1.01
ACGCGTCTTC | 1.06
TGGGAAGAAA | 0.973
ATTCCGTCTG | 1.02
TCCTGTTACT | 1
CTCGCCACTA | 1.07
GAATTAACTA | 0.973
CTATTAGCGA | 1.21
TAACGTTGAC | 1.09
TGGTTATATG | 1.02
AGTCGAGGCC | 1.04
TAAGATATAC | 1.09
AACTGGGTTG | 0.978
TTTCCAGTTG | 1.01
AGTCAAATTG | 0.979
AATGTCATGG | 1.02
AGTAGTAGCC | 1.02
AGGTGGTTCT | 0.954
